# ± gives the standard deviation of the averaged measurements. The full ranking holds about 2,900 compounds; the median of “NF-kB SEAP reporter activity, fold change vs agonist alone” is about 0.99, and the highest 2% start at about 2.6. The list shows a part of the results.
# Assays:
# RAW-Dual [1] = assay: NF-kB SEAP reporter activity, fold change vs agonist alone; cytotoxicity flag (confluency mask): not cytotoxic; higher = enhanced NF-kB activity
# Summary of the method: (§1)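 After 50 nL of library stock was delivered by pin tool to RAW-Dual macrophages (50,000 cells/well, DMEM, 384-well plates), a PRR agonist was added 1 h later and the plates were kept at 37 °C, 5% CO2. Twenty hours later, IRF was read from supernatant by QuantiLuc luminescence and NF-κB by QuantiBlue absorbance at 620 nm. Reporter activity is stated as fold change over agonist-alone wells. Wells with IncuCyte confluency under 70% of agonist controls in both mask sets were counted as cytotoxic.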
# RAW-Dual [2] = assay: NF-kB SEAP reporter activity, fold change vs agonist alone; higher = enhanced NF-kB activity; settings: library stock concentration (final ~1000-fold dilution): 10 mM
# Summary of the method: as §1
# RAW-Dual [3] = assay: NF-kB SEAP reporter activity, fold change vs agonist alone; cytotoxicity flag (confluency mask): cytotoxic (confluency <70% of control); higher = enhanced NF-kB activity
# Summary of the method: as §1
# [4] = agonist: ODN 1826 (TLR9) 0.5 ug/mL
# [5] = agonist: Pam2CSK4 (TLR2/6) 0.1 ug/mL
# [6] = agonist: Pam3CSK4 (TLR2/1) 0.1 ug/mL
# [7] = cytotoxicity flag (confluency mask): not cytotoxic, agonist: Imiquimod (TLR7) […]
# [8] = cytotoxicity flag (confluency mask): not cytotoxic, agonist: MPLA (TLR4) […]
# [9] = cytotoxicity flag (confluency mask): cytotoxic (confluency <70% of control), agonist: MPLA (TLR4) […]
structure (smiles),measurement,setting,value
CC(=O)OC1CC/C(C)=C/CC/C(C)=C/CC2(C(C)C)CCC1(C)O2 (stereo unspecified) (library stock concentration (final ~1000-fold dilution): 10 mM),NF-kB SEAP reporter activity,RAW-Dual [1]; agonist: LPS (TLR4) 0.1 ug/mL,1.04 ± 0.06
same,NF-kB SEAP reporter activity,RAW-Dual [1]; [4],0.72 ± 0.031
same,NF-kB SEAP reporter activity,RAW-Dual [1]; [5],0.933 ± 0.011
same,NF-kB SEAP reporter activity,RAW-Dual [1]; [6],1.23 ± 0.23
CC(=O)OC1CC/C(C)=C/CC/C(C)=C/CC2(C(C)C)CCC1(C)O2 (stereo unspecified),NF-kB SEAP reporter activity,RAW-Dual [2]; [7],0.8118 ± 0.0079
same,NF-kB SEAP reporter activity,RAW-Dual [2]; [8],1.05 ± 0.021
CCC(F)(F)c1cc(N2CCC(S(C)(=O)=O)CC2)nc2sc(C(N)=O)c(N)c12 (library stock concentration (final ~1000-fold dilution): 10 mM),NF-kB SEAP reporter activity,RAW-Dual [1]; agonist: LPS (TLR4) 0.1 ug/mL,0.328
same,NF-kB SEAP reporter activity,RAW-Dual [1]; [4],0.405
same,NF-kB SEAP reporter activity,RAW-Dual [1]; [5],0.128
same,NF-kB SEAP reporter activity,RAW-Dual [1]; [6],0.226
CCC(F)(F)c1cc(N2CCC(S(C)(=O)=O)CC2)nc2sc(C(N)=O)c(N)c12,NF-kB SEAP reporter activity,RAW-Dual [2]; [7],0.658
same,NF-kB SEAP reporter activity,RAW-Dual [2]; [8],0.398
Cc1cn(C2OC(CO)C(O)C2F)c(=O)[nH]c1=O (stereo unspecified) (library stock concentration (final ~1000-fold dilution): 10 mM),NF-kB SEAP reporter activity,RAW-Dual [1]; agonist: LPS (TLR4) 0.1 ug/mL,1.04
same,NF-kB SEAP reporter activity,RAW-Dual [1]; [4],1.03
same,NF-kB SEAP reporter activity,RAW-Dual [1]; [5],1.15
same,NF-kB SEAP reporter activity,RAW-Dual [1]; [6],1.27
Cc1cn(C2OC(CO)C(O)C2F)c(=O)[nH]c1=O (stereo unspecified),NF-kB SEAP reporter activity,RAW-Dual [2]; [7],1.04
same,NF-kB SEAP reporter activity,RAW-Dual [2]; [8],1.06
CC(=O)N1CCN(CCOc2ccc(C3CCN(C4=Nn5c(nnc5C(F)(F)F)CC4)CC3)cc2)CC1,NF-kB SEAP reporter activity,"RAW-Dual [2]; cytotoxicity flag (confluency mask): cytotoxic (confluency <70% of control), agonist: Imiquimod (TLR7) […]",2.1
same,NF-kB SEAP reporter activity,RAW-Dual [2]; [9],2.22
CC(=O)N1CCN(CCOc2ccc(C3CCN(C4=Nn5c(nnc5C(F)(F)F)CC4)CC3)cc2)CC1 (library stock concentration (final ~1000-fold dilution): 10 mM),NF-kB SEAP reporter activity,RAW-Dual [3]; agonist: LPS (TLR4) 0.1 ug/mL,2.42
same,NF-kB SEAP reporter activity,RAW-Dual [3]; [4],1.81
same,NF-kB SEAP reporter activity,RAW-Dual [3]; [5],1.04
same,NF-kB SEAP reporter activity,RAW-Dual [3]; [6],1.3
O=C(O)c1ccc(/C=C2/SC(=S)N(c3cccc(C(F)(F)F)c3)C2=O)cc1,NF-kB SEAP reporter activity,RAW-Dual [2]; [7],0.683
same,NF-kB SEAP reporter activity,RAW-Dual [2]; [8],0.827
O=C(O)c1ccc(/C=C2/SC(=S)N(c3cccc(C(F)(F)F)c3)C2=O)cc1 (library stock concentration (final ~1000-fold dilution): 10 mM),NF-kB SEAP reporter activity,RAW-Dual [1]; agonist: LPS (TLR4) 0.1 ug/mL,0.668
same,NF-kB SEAP reporter activity,RAW-Dual [1]; [4],0.623
same,NF-kB SEAP reporter activity,RAW-Dual [1]; [5],0.845
same,NF-kB SEAP reporter activity,RAW-Dual [1]; [6],0.605
Cn1cc(C=C2C(=O)Nc3cccnc32)c2ccccc21,NF-kB SEAP reporter activity,RAW-Dual [2]; [7],0.959
same,NF-kB SEAP reporter activity,RAW-Dual [2]; [8],1.19
Cn1cc(C=C2C(=O)Nc3cccnc32)c2ccccc21 (library stock concentration (final ~1000-fold dilution): 10 mM),NF-kB SEAP reporter activity,RAW-Dual [1]; agonist: LPS (TLR4) 0.1 ug/mL,0.961
same,NF-kB SEAP reporter activity,RAW-Dual [1]; [4],0.793
same,NF-kB SEAP reporter activity,RAW-Dual [1]; [5],0.463
same,NF-kB SEAP reporter activity,RAW-Dual [1]; [6],0.619
O=c1c2cc(O)c(O)cc2oc2cc(O)c([C@@H]3O[C@H](CO)[C@@H](O)[C@H](O)[C@H]3O)c(O)c12,NF-kB SEAP reporter activity,RAW-Dual [2]; [7],0.937
same,NF-kB SEAP reporter activity,RAW-Dual [2]; [8],1.02
O=c1c2cc(O)c(O)cc2oc2cc(O)c([C@@H]3O[C@H](CO)[C@@H](O)[C@H](O)[C@H]3O)c(O)c12 (library stock concentration (final ~1000-fold dilution): 10 mM),NF-kB SEAP reporter activity,RAW-Dual [1]; agonist: LPS (TLR4) 0.1 ug/mL,1.31
same,NF-kB SEAP reporter activity,RAW-Dual [1]; [4],1.11
same,NF-kB SEAP reporter activity,RAW-Dual [1]; [5],1.12
same,NF-kB SEAP reporter activity,RAW-Dual [1]; [6],0.916
CN1CCN(CCCN2c3ccccc3Sc3ccc(Cl)cc32)CC1.O=C(O)/C=C\C(=O)O.O=C(O)/C=C\C(=O)O,NF-kB SEAP reporter activity,RAW-Dual [2]; [9],1.42
CN1CCN(CCCN2c3ccccc3Sc3ccc(Cl)cc32)CC1.O=C(O)/C=C\C(=O)O.O=C(O)/C=C\C(=O)O (library stock concentration (final ~1000-fold dilution): 10 mM),NF-kB SEAP reporter activity,RAW-Dual [3]; agonist: LPS (TLR4) 0.1 ug/mL,0.548
same,NF-kB SEAP reporter activity,RAW-Dual [3]; [4],0.394
same,NF-kB SEAP reporter activity,RAW-Dual [3]; [5],0.793
same,NF-kB SEAP reporter activity,RAW-Dual [3]; [6],0.797
CC(C)n1c(C=CC(O)CC(O)CC(=O)O)c(-c2ccc(F)cc2)c2ccccc21 (stereo unspecified) (library stock concentration (final ~1000-fold dilution): 10 mM),NF-kB SEAP reporter activity,RAW-Dual [1]; agonist: LPS (TLR4) 0.1 ug/mL,3.64
same,NF-kB SEAP reporter activity,RAW-Dual [1]; [4],2.92
same,NF-kB SEAP reporter activity,RAW-Dual [1]; [5],2.13
same,NF-kB SEAP reporter activity,RAW-Dual [1]; [6],3.38
CC(C)n1c(C=CC(O)CC(O)CC(=O)O)c(-c2ccc(F)cc2)c2ccccc21 (stereo unspecified),NF-kB SEAP reporter activity,RAW-Dual [2]; [7],2.45
same,NF-kB SEAP reporter activity,RAW-Dual [2]; [8],2.14
COc1cc(Nc2ncc(F)c(Nc3ccc4c(n3)N(COP(=O)(O)O)C(=O)C(C)(C)O4)n2)cc(OC)c1OC (library stock concentration (final ~1000-fold dilution): 10 mM),NF-kB SEAP reporter activity,RAW-Dual [1]; agonist: LPS (TLR4) 0.1 ug/mL,0.47
same,NF-kB SEAP reporter activity,RAW-Dual [1]; [4],1.02
same,NF-kB SEAP reporter activity,RAW-Dual [1]; [5],0.192
same,NF-kB SEAP reporter activity,RAW-Dual [1]; [6],0.787
COc1cc(Nc2ncc(F)c(Nc3ccc4c(n3)N(COP(=O)(O)O)C(=O)C(C)(C)O4)n2)cc(OC)c1OC,NF-kB SEAP reporter activity,RAW-Dual [2]; [7],1.06
same,NF-kB SEAP reporter activity,RAW-Dual [2]; [8],1.21
CC1(O)CC(c2nc(-c3ccc4ccc(-c5ccccc5)nc4c3)c3c(N)nccn23)C1 (stereo unspecified) (library stock concentration (final ~1000-fold dilution): 10 mM),NF-kB SEAP reporter activity,RAW-Dual [1]; agonist: LPS (TLR4) 0.1 ug/mL,2.31
same,NF-kB SEAP reporter activity,RAW-Dual [1]; [4],0.319
same,NF-kB SEAP reporter activity,RAW-Dual [1]; [5],0.761
same,NF-kB SEAP reporter activity,RAW-Dual [1]; [6],0.913
CC1(O)CC(c2nc(-c3ccc4ccc(-c5ccccc5)nc4c3)c3c(N)nccn23)C1 (stereo unspecified),NF-kB SEAP reporter activity,RAW-Dual [2]; [7],1.34
same,NF-kB SEAP reporter activity,RAW-Dual [2]; [8],1.41
CNC(=O)Nc1ccc(-c2nc(N3CC4CCC(C3)O4)c3cnn(C4CCC5(CC4)OCCO5)c3n2)cc1 (library stock concentration (final ~1000-fold dilution): 10 mM),NF-kB SEAP reporter activity,RAW-Dual [1]; agonist: LPS (TLR4) 0.1 ug/mL,1.44
same,NF-kB SEAP reporter activity,RAW-Dual [1]; [4],0.918
same,NF-kB SEAP reporter activity,RAW-Dual [1]; [5],1.08
same,NF-kB SEAP reporter activity,RAW-Dual [1]; [6],0.709
CNC(=O)Nc1ccc(-c2nc(N3CC4CCC(C3)O4)c3cnn(C4CCC5(CC4)OCCO5)c3n2)cc1,NF-kB SEAP reporter activity,RAW-Dual [2]; [7],0.92
same,NF-kB SEAP reporter activity,RAW-Dual [2]; [8],0.956
CCCCCCCCCCCCCCCCCC[N+](C)(C)C (library stock concentration (final ~1000-fold dilution): 10 mM),NF-kB SEAP reporter activity,RAW-Dual [3]; agonist: LPS (TLR4) 0.1 ug/mL,0.996
same,NF-kB SEAP reporter activity,RAW-Dual [3]; [4],1.37
same,NF-kB SEAP reporter activity,RAW-Dual [3]; [5],0.699
same,NF-kB SEAP reporter activity,RAW-Dual [3]; [6],0.534
CCCCCCCCCCCCCCCCCC[N+](C)(C)C,NF-kB SEAP reporter activity,RAW-Dual [2]; [9],1.75

# From the supplement of paper PMC10037445
